{"source": "PubChem BioAssay AID651820", "about": "(National Center for Advancing Translational Sciences (NCATS), 2012)", "note": "Hit rate of the full screen: of about 340,000 compounds, about 12,000 (3.5%) were called active. Inconclusive results, whose numbers are uncertain, are shown with a selection of clear calls. Calls come from the whole dose curve; as a rule, active = well fitted inhibition curve with a large enough effect; inconclusive = small, poorly fitted or top-dose-only effect, or another doubt; inactive = no such curve, though single readings can be large or run the other way. No potency is given beside an inconclusive call; the fits are too rough. % is set by controls: 0 for no effect and ±100 for the full control effect; potency is the fitted concentration of half-maximal effect; tags give direction and shape of the fitted curve."}
{"experiment": "qHTS Assay for Inhibitors of Hepatitis C Virus (HCV)", "conditions": "Huh7.5.1 HCVcc-Cre (HCVcc is cell-culture hepatitis C virus) infection, luciferase reporter, 44 h; activity change, negative = inhibition: at 41.8 µM (top of the series) unless noted", "summary_of_the_method": "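Reporter virus HCVcc-Cre (~0.5 moi) infects cells exposed to compound; seeding density 1,000 cells/well with 4 h settling beforehand. Luminescence, 15 sec read, taken 44 h post-infection following a 15 min RT substrate incubation.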"}
{"smiles": "CCOC(=O)c1sc(N(Cc2ccccc2)C(=O)COC(=O)c2ccc(O)cc2)nc1C", "Potency": "inconclusive [inhibitor, single point]"}
{"smiles": "COc1cccc(NC(=O)N2CCCc3ccccc32)c1", "Potency": "inactive"}
{"smiles": "Cc1nc(SCC#N)c2c(C)c(C)sc2n1", "Potency": "inactive"}
{"smiles": "CCc1nc2ccccc2c(C(=O)O)c1C", "Potency": "inconclusive [inhibitor, full curve, poor fit]"}
{"smiles": "COc1ccc(/C=C(\\NC(=O)c2cccs2)C(=O)Nc2cccc3ccccc23)cc1OC", "Potency": "inconclusive [inhibitor, full curve, poor fit]"}
{"smiles": "COc1ccc(OC)c2[nH]c(=O)c(CCNC(=O)CC(C)C)cc12", "Potency": "inconclusive [inhibitor, full curve, poor fit]"}
{"smiles": "COc1ccc(CN2CCNC(=O)C2CC(=O)NCC2CCOCC2)c(F)c1", "note": "(stereo unspecified)", "Potency": "inactive"}
{"smiles": "CCOC(=O)c1cc2c(=O)n3ccccc3nc2n(Cc2ccco2)c1=NC(=O)c1ccccc1OC", "Potency": "inconclusive [inhibitor, partial curve]"}
{"smiles": "COn1c(C)c(C(C)=O)c2c3nonc3ccc21", "Potency": "inconclusive [inhibitor, single point]"}
{"smiles": "C=CCn1c(=O)c(C(=O)NCc2ccc3c(c2)OCO3)c(O)c2ccccc21", "Potency": "inconclusive [inhibitor, single point]"}
{"smiles": "O=C(NC1CCN(Cc2ccccc2)CC1)c1ccc2c(c1)[nH]c(=O)n2Cc1ccc(F)cc1", "Potency": "active: 2.51 µM"}
{"smiles": "COc1cc(NC(=O)c2cnn3c(C)cc(C)nc23)c(OC)cc1Cl", "Potency": "inconclusive [inhibitor, full curve]"}
{"smiles": "c1ccc(-c2cc(N3CCOCC3)nc(-c3ccccc3)n2)cc1", "Potency": "inactive"}
{"smiles": "Cc1ccc(S(C)(=O)=O)cc1C(=O)OCC(=O)N(Cc1ccccc1)Cc1ccccc1", "Potency": "inconclusive [inhibitor, single point]"}
{"smiles": "Cc1ccc(NC(=O)CCc2ccc(S(=O)(=O)NC3CCCCC3)cc2)cc1", "Potency": "inconclusive [inhibitor, partial curve]"}
{"smiles": "CC(C)C(C)NC(=O)CN1C(=O)NC2(CCCCCC2)C1=O", "note": "(stereo unspecified)", "Potency": "inactive"}
{"smiles": "O=C(CN1CCN(c2ccc([N+](=O)[O-])cc2)CC1)Nc1ccccn1", "Potency": "inconclusive [inhibitor, single point]"}
{"smiles": "Cc1nc(SCCO)c2oc3ccccc3c2n1", "Potency": "inconclusive [inhibitor, single point]"}
{"smiles": "CC(=O)N(Cc1cccs1)Cc1cc2cc(C)c(C)cc2nc1Cl", "Potency": "inconclusive [inhibitor, partial curve]"}
{"smiles": "O=C(Nc1cc(Cl)ccc1-n1cncn1)c1ccc(F)c(S(=O)(=O)N2CCOCC2)c1", "Potency": "inconclusive [inhibitor, single point]"}
{"smiles": "COc1ccc2c(COC(=O)c3n[nH]c4ccccc34)cc(=O)oc2c1", "Potency": "inconclusive [inhibitor, single point]"}
{"smiles": "Cc1nnc(NC(=O)c2ccc(F)c(S(=O)(=O)N3CCOCC3)c2)s1", "Potency": "inactive"}
{"smiles": "COc1cccc(Nc2nc(N)nc(C(F)(F)F)n2)c1", "Potency": "inactive"}
{"smiles": "Cn1c(=O)c(=O)n(C)c2cc(S(=O)(=O)CCC(=O)Nc3c(F)c(F)c(F)c(F)c3F)ccc21", "Potency": "inactive"}
{"smiles": "c1ccc(-c2cnc(-c3ccccn3)nn2)cc1", "Potency": "active: 0.501 µM"}
{"smiles": "CC(=O)c1cccc(NC(=O)Nc2ccc(C)cc2)c1", "Potency": "inconclusive [inhibitor, single point]"}
{"smiles": "COc1cc(C(=O)Nc2cc(C(F)(F)F)ccc2N2CCOCC2)ccc1OCC(=O)N1CCOCC1", "Potency": "inconclusive [inhibitor, full curve]"}
{"smiles": "CCc1ccn2cc(-c3ccc4c(c3)OCO4)nc2c1", "Potency": "inconclusive [inhibitor, single point]"}
{"smiles": "O=C(c1ccc(C#CC2(O)CCCCC2)cc1)N1CCN(C(c2ccccc2)c2ccccc2)CC1", "Potency": "inconclusive [inhibitor, single point]"}
{"smiles": "Cc1cccc(NC(=O)Nc2c(C)n(C)n(-c3ccccc3)c2=O)c1C", "Potency": "inactive"}
{"smiles": "CCn1c(=O)c([N+](=O)[O-])c(NCCc2ccccc2)c2ccccc21", "Potency": "inconclusive [inhibitor, single point]"}
{"smiles": "Cc1c(Cl)c(C(F)F)nn1CC(=O)NC1C(=O)N2C(C(=O)O)=C(CSc3nnnn3C)CSC12", "note": "(stereo unspecified)", "Potency": "inactive"}
{"smiles": "COC(=O)C1=C(c2ccc(S(C)(=O)=O)cc2)C[C@@H]2CC[C@H]1N2C(=O)NCc1ccc(C(F)(F)F)cc1", "Potency": "inconclusive [inhibitor, single point]"}
{"smiles": "Clc1ccc(OCCCN2CCCC2)cc1Cl", "Potency": "inconclusive [inhibitor, partial curve]"}
{"smiles": "O=C(O)[C@@H]1Cc2ccccc2N1", "Potency": "inactive"}
{"smiles": "CSc1nc(-c2ccccc2)[nH]c(=S)c1C(C)=O", "Potency": "inactive"}
{"smiles": "COc1ccccc1CNC(=O)C1CCN(S(=O)(=O)c2cccc3nonc23)CC1", "Potency": "inconclusive [inhibitor, partial curve, poor fit]"}
{"smiles": "O=C(O)c1ccc(/C=N/NC(=O)c2ccc(F)cc2)cc1", "Potency": "inactive"}
{"smiles": "CC(C)C[C@H]1CN=C(Nc2ccccc2)N1CC1CCC(C(C)(C)C)CC1", "note": "(stereo partly specified)", "Potency": "active: 11.2 µM"}
{"smiles": "CC(=O)c1c(C)[nH]c(C(=O)OCC(=O)Nc2cc(C)on2)c1C", "Potency": "inconclusive [inhibitor, single point]"}
{"smiles": "C=CCOc1ccc(CNc2nccs2)cc1OC", "Potency": "active: 10 µM"}
{"smiles": "CCCS(=O)(=O)c1c(S(=O)(=O)CCC)c2c3ccccc3ccn2c1C(N)=O", "Potency": "inconclusive [inhibitor, partial curve, poor fit]"}
{"smiles": "CC(C)Cn1c(CN(C)Cc2ccccc2)nc2c1c(=O)n(C)c(=O)n2C", "Potency": "inconclusive [inhibitor, partial curve]"}
{"smiles": "C[C@H]1CN=C(Nc2ccccc2)N1CCCC1CCCC1", "Potency": "inconclusive [inhibitor, single point]"}
{"smiles": "O=C(NCCc1ccccc1)C1CCN(S(=O)(=O)c2ccccc2)CC1", "Potency": "inactive"}
{"smiles": "Fc1ccc(-c2cc(C(F)(F)F)nc(-n3cncn3)n2)cc1", "Potency": "inconclusive [inhibitor, single point]"}
{"smiles": "O=C(Nc1ccc(F)cc1)C(c1ccccc1)N1CCN(CC(=O)N2CCCC2)CC1", "note": "(stereo unspecified)", "Potency": "inconclusive [inhibitor, single point]"}
{"smiles": "COC(=O)C1=C(c2ccccc2)C[C@@H]2CC[C@H]1N2C(=O)NC1CCCCC1", "Potency": "inactive"}
{"smiles": "O=C(O)CS(=O)(=O)CC(=O)O", "Potency": "inconclusive [inhibitor, partial curve]"}
{"smiles": "Cc1ccc(S(=O)(=O)CCC(=O)OCC(=O)NCCc2ccc(S(N)(=O)=O)cc2)cc1", "Potency": "inactive"}
{"smiles": "C=CCn1c(COc2cccc(C)c2C)nnc1SCC(=O)N1CCN(c2ccccc2)CC1", "Potency": "inconclusive [inhibitor, partial curve, poor fit]"}
{"smiles": "Cc1ccccc1NC(=O)CSc1nc(Nc2ccccc2)nc(N2CCOCC2)n1", "Potency": "inconclusive [inhibitor, full curve]"}
{"smiles": "C/C(=N\\NS(=O)(=O)c1ccc(Cl)cc1)c1ccc(O)cc1", "Potency": "inconclusive [inhibitor, single point]"}
{"smiles": "N/C(=N\\OC(=O)c1ccc2ccccc2c1)c1ccccc1Cl", "Potency": "inconclusive [inhibitor, single point]"}
{"smiles": "CC1(C)CC(=O)C=C(c2ccc(I)cc2)C1", "Potency": "inconclusive [inhibitor, partial curve]"}
{"smiles": "Clc1ccc(CNCCCSc2ncccn2)cc1", "Potency": "inactive"}
{"smiles": "CCC/C=C(\\CCC)C(NS(=O)(=O)c1cccc2cccnc12)c1ccc(C(=O)OC)cc1", "note": "(stereo unspecified)", "activity change, negative = inhibition": "inactive: 4.06% [at 8.37 µM]"}
{"smiles": "Cc1sccc1/C=N/NC(=O)c1cccc2ccccc12", "Potency": "inactive"}
{"smiles": "N#C/C(=C\\C=C\\c1ccccc1[N+](=O)[O-])C(=O)NC1CCCCC1", "Potency": "inconclusive [inhibitor, single point]"}
{"smiles": "CCCCn1c2ccccc2c2cc(CC(N)=O)ccc21", "Potency": "inconclusive [inhibitor, partial curve, poor fit]"}
{"smiles": "COC(=O)c1sc(NC(=O)CSc2nc3cccnc3n2C)nc1C", "Potency": "inconclusive [inhibitor, partial curve, poor fit]"}
{"smiles": "COC(=O)c1ccc(C2C(Oc3ccccc3C)C(=O)N2CCc2ccc(OC)c(OC)c2)cc1", "note": "(stereo unspecified)", "Potency": "inconclusive [inhibitor, single point]"}
{"smiles": "O=C1/C(=C\\c2ccsc2)NC(=S)N1c1ccccc1", "Potency": "active: 11.2 µM"}
{"smiles": "CC(Oc1ccc(Cl)cc1Cl)c1ccnc(N)n1", "note": "(stereo unspecified)", "Potency": "inconclusive [inhibitor, single point]"}
{"smiles": "O=C(Nc1cccnc1)C1COc2ccccc2O1", "note": "(stereo unspecified)", "Potency": "inactive"}
{"smiles": "Cc1ccc(CSCCNC(=O)c2ccc(Cl)c(S(=O)(=O)N3CCOCC3)c2)cc1", "Potency": "active: 22.4 µM"}
{"smiles": "CCOC(=O)Cc1cc(-c2ccc(OC)cc2)nc2ccc3ccccc3c12", "Potency": "inconclusive [inhibitor, single point]"}
{"smiles": "CC(OC(=O)c1cc2sccc2n1C)C(=O)NCc1cccs1", "note": "(stereo unspecified)", "Potency": "inconclusive [inhibitor, single point]"}
{"smiles": "CC1CCC(C(=O)NNC(=O)c2cc(-c3ccco3)[nH]n2)CC1", "note": "(stereo unspecified)", "Potency": "inconclusive [inhibitor, single point]"}
{"smiles": "O=C(NCc1ccco1)C1CCN(C(=O)c2ccc(Cl)cc2Cl)CC1", "Potency": "inactive"}
{"smiles": "CC(C)N(Cc1nccn1C)C(=O)c1ccc2oc(CCCc3ccccc3)nc2c1", "Potency": "inconclusive [inhibitor, partial curve]"}
